According to the supplement of paper PMC3334620:
In all, about 33,000 sequences were measured (“E-score (-0.5 to 0.5)”: median about -0.054, highest 2% from about 0.35 on). Some of the results follow.

Biological target: T1, Stb5 (UniProt P38699)
T1 sequence: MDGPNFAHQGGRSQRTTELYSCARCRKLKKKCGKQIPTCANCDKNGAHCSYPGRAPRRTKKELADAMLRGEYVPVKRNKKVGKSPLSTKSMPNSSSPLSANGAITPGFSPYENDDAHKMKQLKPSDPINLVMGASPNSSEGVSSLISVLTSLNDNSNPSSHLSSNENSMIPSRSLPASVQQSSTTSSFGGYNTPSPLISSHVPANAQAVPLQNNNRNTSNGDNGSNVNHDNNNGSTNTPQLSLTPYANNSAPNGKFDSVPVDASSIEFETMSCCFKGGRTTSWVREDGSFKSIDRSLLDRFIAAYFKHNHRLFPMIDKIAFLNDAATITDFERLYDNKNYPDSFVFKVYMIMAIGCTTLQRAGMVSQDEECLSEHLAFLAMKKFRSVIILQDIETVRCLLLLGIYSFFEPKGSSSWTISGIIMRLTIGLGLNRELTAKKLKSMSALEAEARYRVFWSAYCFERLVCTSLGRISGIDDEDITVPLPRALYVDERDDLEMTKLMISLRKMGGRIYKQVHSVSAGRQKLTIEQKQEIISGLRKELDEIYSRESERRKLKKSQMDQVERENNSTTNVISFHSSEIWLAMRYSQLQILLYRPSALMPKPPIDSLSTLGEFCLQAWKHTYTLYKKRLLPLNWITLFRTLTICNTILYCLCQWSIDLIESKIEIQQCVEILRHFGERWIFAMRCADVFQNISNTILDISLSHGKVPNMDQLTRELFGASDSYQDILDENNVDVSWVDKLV
Experiment: PBM E-score (8-mer binding enrichment) (E-score (-0.5 to 0.5)); higher = stronger / more preferred TF binding; most listed sequences are background and not binding sites
Conditions: protein concentration: 200 nM; construct: GST-full length
In short: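 Yeast transcription factors, full-length or as DNA-binding domains, were expressed with a GST tag using PURExpress in vitro transcription/translation. At about 100-200 nM they were applied to universal all-10-mer Agilent arrays, double-stranded by primer extension on fresh or once-stripped slides. Fluorescent anti-GST detected bound protein, and masliner normalised the scans. E-scores for ungapped eight-base words, pooled with reverse complements, came from the Universal PBM Analysis Suite.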

Sequence | PBM E-score
AATCAGGC | -0.0331
GTTAAAGA | 0.166
CAGTAGCA | -0.134
GATTGAGC | -0.0181
ACCCTCCT | -0.0607
CAGCCGTA | -0.0235
ATGGCGAG | -0.242
ACGTACGA | -0.155
CACGATGA | -0.0249
AGCCCGTG | 0.174
AGTATGGA | -0.162
ATTTCGAC | -0.0273
GGGCCCAC | 0.00454
ACCGCTCA | 0.256
AATTTGAT | -0.17
CGTCGCTC | -0.0435
CGGGAGTA | 0.417
GCAACAGC | 0.0239
ACTCGGAA | 0.0885
ACAACCGC | 0.222
TTCAGCAA | -0.256
CCCCAATC | -0.148
TATCGGCA | 0.322
CGTGGCCC | 0.0342
AATCTCGA | -0.197

Sequence | PBM E-score
CGGATAAG | 0.11
CGACTGCG | 0.0873
GGGGTGCA | 0.0203
ACCATATA | -0.0817
ACCCTAGT | -0.225
CGAAACAA | -0.0733
ACCAAATG | -0.185
GTCATGAC | -0.0238
AAGAGCGA | -0.00753
GCAATCCA | -0.0215
GAAACTCA | -0.116
AGCCCAGG | -0.342
GACTTGTA | 0.0378
TCCAGACA | -0.188
CCTCCTCA | -0.214
AACTGAGT | 0.0456
AATGGTAT | -0.00968
AGACACGC | -0.06
GTAACTCA | -0.189
GAGACGCC | 0.298
ACACTGCG | 0.0399
CAAACGGA | 0.293
AAGGAGGG | -0.272
CTACCTCC | 0.0797
AAAGTGCA | -0.161

Sequence | PBM E-score
AAAAAGGC | 0.00678
ACTGCCCT | -0.14
ACCCATAC | -0.231
GGAGAAAC | 0.0897
TCACCGGA | 0.343
CCCCACAC | -0.0314
CCCCTTTC | -0.0301
ACATAGAT | 0.0166
CGCGGCGC | 0.318
ATCGCTGA | -0.111
CAAGAGAC | -0.146
ATGTGATG | -0.162
ATCAAAGC | 0.0343
TAGCTACA | -0.255
TAGCGAAA | -0.248
ACAGCTGT | -0.265
TCGGCCGA | 0.197
AAGTCGAC | -0.208
AGGAGCCC | 0.0224
CCTCGGCG | 0.225
AACGGTCG | 0.202
TGGGCTAA | -0.227
AAAAAAAG | 0.0372
AAAACACA | -0.0864
CCTCAGTC | -0.204

Sequence | PBM E-score
CTTCTTAA | -0.0379
AAATGCTC | -0.116
AGGGCGCG | 0.0876
AGCAATTC | -0.00758
GATGAAAA | -0.0348
CTTCAACA | -0.115
CGCCCGAA | 0.0009
AAACTCAG | -0.185
CCACCATC | -0.149
ATTCCATA | -0.111
ACTAGGTC | 0.033
GATCGCCC | -0.13
TCTTATCA | 0.0228
AATGTTTA | -0.121
CGATTTAC | 0.00852
ATTACCCA | -0.176
ACGAGCCG | -0.0642
CGACGGCC | 0.252
ACAAGCTA | -0.36
TGAATTAA | -0.131
AGATTGGG | -0.079
CCTTCACC | -0.115
ACGGGGTG | 0.286
ACCGTCCA | 0.242
CAACTATA | -0.0129

Sequence | PBM E-score
AGGAATTC | -0.317
AAAACGCT | -0.162
CACCGCGA | 0.37
ATGCAGCA | -0.171
CAACGGTG | 0.346
AAAATTTC | 0.0457
ACGTCAAT | -0.223
CCCCCCGA | 0.14
ATGGTCCG | 0.215
GTCCTGCA | -0.204
ACATTTCG | 0.0112
CAAGAAAC | 0.0575
ACATCAGT | -0.12
ATGCGGGC | 0.087
ATGCACGC | -0.0459
CGTACAAC | -0.0258
AGTCGCAG | -0.0686
TCCTACAA | -0.175
GGTTGGAA | -0.00682
ACCAGGCT | -0.232
GCCCCGTA | 0.233
CAACCCAA | -0.308
GGCCACTA | -0.0968
TGCCCACA | -0.0639
ATGAGTAG | -0.0225

Sequence | PBM E-score
ACGTTGTC | -0.138
CGAGACAG | -0.159
GACCTATC | 0.0702
CATGAGCG | 0.0176
GCCCTAGA | -0.0867
AATAAACT | 0.0307
GAAAGTTA | 0.0753
AAGCACGC | -0.0515
CCATCATC | -0.257
AACGCTAG | -0.112
ACGTCTCT | -0.174
CGATGTCA | -0.14
TCCAGGCA | -0.285
AGAACGAG | -0.252
ATATCAAC | -0.054
GCTCACAA | -0.0221
ATATATAT | 0.139
CGTCCAAC | 0.00327
ACCGCGTG | 0.218
CTAGGCTC | -0.246
AAGACACA | -0.233
GTCCCGAA | 0.121
ACCGGGTA | 0.227
AAATATCT | 0.0532
CAGCATGA | -0.137

Sequence | PBM E-score
AGGGTGGA | -0.277
ACTTACGA | -0.0965
CAGTGTAG | -0.263
ATAACCTC | 0.0793
ATAGTATG | -0.0801
CACCCGCC | 0.204
TAGGAGGA | -0.287
CCCTGGCA | -0.0609
ACCTCAAA | -0.0791
CGGGAAGC | -0.0666
GGAACTAC | 0.118
GAAAAACA | -0.113
GCTTTGCA | -0.0804
CTGGCGCA | -0.19
CTTACGGC | 0.283
CCGTCCTC | 0.189
AACCTTTA | -0.103
AAACCGGA | 0.196
AACACCCC | 0.17
CTTTTAGA | 0.11
CCAAGTAA | -0.125
GTGCCCAC | -0.104
